# Test results published in paper PMC6919601, “Identification of Plasmodium dipeptidyl aminopeptidase allosteric inhibitors by high throughput screening” (PLoS ONE, 2019).
# The campaign covered roughly 110,000 compounds. About 230 (0.21%) showed an effect of 50% or more. Some of the results follow.
# Target: DPAP1 (Plasmodium falciparum, UniProt Q8IIJ9)
# Assay: primary screen, percent inhibition; read by cleavage of a fluorogenic dipeptide substrate; higher = more effect of the substance
# Set-up: species or system P. falciparum D10 trophozoite lysates; single well
# 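Also: 30 min substrate incubation versus DMSO and 10 µM JCP410 controls.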
# DPAP1, sequence (Q8IIJ9 whole entry, looked up): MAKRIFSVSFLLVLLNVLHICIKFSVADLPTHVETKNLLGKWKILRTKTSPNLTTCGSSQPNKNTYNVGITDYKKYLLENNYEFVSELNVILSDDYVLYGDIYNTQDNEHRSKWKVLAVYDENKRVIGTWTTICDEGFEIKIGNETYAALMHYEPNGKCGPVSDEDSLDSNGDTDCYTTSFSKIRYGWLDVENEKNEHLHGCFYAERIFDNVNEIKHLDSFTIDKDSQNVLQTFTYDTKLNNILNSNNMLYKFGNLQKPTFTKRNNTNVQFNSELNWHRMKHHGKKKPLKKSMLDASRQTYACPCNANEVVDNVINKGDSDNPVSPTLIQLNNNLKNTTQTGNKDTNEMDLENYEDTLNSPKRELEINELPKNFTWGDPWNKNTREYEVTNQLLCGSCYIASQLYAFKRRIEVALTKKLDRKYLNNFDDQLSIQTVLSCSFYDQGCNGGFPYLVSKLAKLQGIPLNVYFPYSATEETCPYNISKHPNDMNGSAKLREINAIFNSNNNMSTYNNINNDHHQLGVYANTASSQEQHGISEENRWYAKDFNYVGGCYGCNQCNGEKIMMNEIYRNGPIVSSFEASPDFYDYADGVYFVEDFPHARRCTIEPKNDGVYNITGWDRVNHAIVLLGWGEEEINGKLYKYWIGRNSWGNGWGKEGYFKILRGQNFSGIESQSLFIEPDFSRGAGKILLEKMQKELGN
row,Structure (SMILES),% Inhibition @ 10 uM
1,COc1ccccc1-c1cc(-c2ccccc2)nc(SCC(=O)c2ccc(Cl)cc2)c1C#N,-4%
2,CC(NC(=O)c1cnn(-c2ccccc2)c1-n1cccc1)c1ccc2c(c1)OCCO2 (stereo not drawn),3.4%
3,Fc1cccc2c1N[C@@H](c1ccccn1)[C@H]1CC=C[C@@H]21,2.08%
4,O=S(=O)(c1ccccc1)c1nnn2c1nc(N1CCC(N3CCCCC3)CC1)c1ccccc12,-1.6%
5,CN(C)c1nc(C(N)=O)nc(N2CCOCC2)n1,0.628%
6,Cc1ccccc1CCNCc1c(C(=O)O)n(Cc2ccccc2C)c2ccccc12,-3.5%
7,Cc1ccc(NC(=O)CN2C(=O)S/C(=C\c3ccc4c(c3)n(C)c(=O)n4C)C2=O)cc1,0.161%
8,CSCCC(NC(=O)OCc1ccccc1)C(=O)O (stereo not drawn),-4.67%
9,CCCCCCC1NC(C(=O)O)Cc2c1[nH]c1ccccc21 (stereo not drawn),-1.45%
10,CC1CC(C)CN(C(=O)CSc2nnc(-c3ccc(F)cc3)o2)C1 (stereo not drawn),1.8%
11,CNC(=S)N(CCc1c(C)[nH]c2ccc(F)cc12)Cc1cccnc1,-2.01%
12,CC(C)C[C@H](NC(=O)N1CCCN(C)CC1)C(=O)NCC#N,-5.2%
13,COc1ccc(/C=C2\C(=O)N(c3ccc([N+](=O)[O-])cc3)N=C2c2ccccc2)c(OC)c1,-5.51%
14,CCOc1ccc(-c2nonc2NC(=O)c2ccc(C(C)(C)C)cc2)cc1,-1.11%
15,Cc1ccc(Oc2ccc(NC(=O)c3ccccc3C(=O)O)cc2)cc1,-1.07%
16,O=C(CN1C(=O)S/C(=C/c2cc(Cl)ccc2O)C1=O)N1CCN(c2ccccc2)CC1,10.4%
17,O=S(=O)(Nc1nc2ccccc2s1)c1cccs1,0.0654%
18,CCn1c(NC(=O)c2nn(C)cc2Br)nc2ccccc21,0.826%
19,Cc1ccc(S(=O)(=O)NCCN2CCN(S(=O)(=O)c3ccc(C)c(C)c3C)CC2)c(C)c1C,1.62%
20,COc1ccc2cc(-c3nc4ccccc4[nH]3)c(=N)oc2c1,2.91%
21,O=C(CCn1ccc2cc(S(=O)(=O)N3CCCCCC3)ccc21)N1CCN(c2ccccn2)CC1,1.59%

row,Structure (SMILES),% Inhibition @ 10 uM
1,CN1C(=O)c2ccccc2C(C(=O)N2CCc3ccccc3C2)C1c1cccs1 (stereo not drawn),-4.49%
2,COc1ccc2nc(NC(=O)CCn3ccc(C)n3)sc2c1,-6.5%
3,Oc1nnc(Cc2ccccc2)c2ccccc12,-0.807%
4,O=C(Nc1ccncc1)C(=O)Nc1ccncc1,0.827%
5,CCOC(=O)/C=C(\C)N1N=C2c3ccc(OC)cc3CCC2C1c1cccc(F)c1 (stereo not drawn),73.1%
6,CC(=O)C1=C(O)C(=O)N(CCNCCO)C1c1ccc(Cl)cc1 (stereo not drawn),-9.45%
7,Cn1c(=O)c2c(ncn2CC(=O)Nc2ccc(F)cc2)n(C)c1=O,-2.22%
8,COc1ccc(C)cc1N(CC(=O)Nc1ccccc1Cl)S(C)(=O)=O,-1.61%
9,COc1ccc(C2Nn3c(nnc3-c3ccccc3)SC2C(=O)NCC(C)C)cc1Cl (stereo not drawn),-3.53%
10,O=C(O)C12CC3CC(C1)CC(n1cnc(Cl)n1)(C3)C2,2.32%
11,COc1cc2c(cc1OC)Sc1ccc(Cl)cc1C(=O)C2,-1.11%
12,C=CCc1ccccc1OCc1cc(=O)n2oc(C)cc2n1,-9.6%
13,CCOc1ccc(CCNc2ncnc3c2oc2ccccc23)cc1OCC,-4.49%
14,COCc1cc(C)nc2sc(C(=O)Nc3ccc(Cl)cc3)c(N)c12,15.1%
15,CCOC(=O)c1c(NC(=O)c2ccc3c(c2)CC(c2ccccc2)OC3=O)sc(C)c1C (stereo not drawn),-2.92%
16,COc1cccc(CNC(=O)c2ccc(CS(=O)c3ccccc3Cl)o2)c1OC (stereo not drawn),-0.154%
17,N#Cc1cnn(-c2cc(Oc3ccccc3)nc(-c3ccccc3)n2)c1N,-0.941%
18,Cc1ccccc1NC(=O)CN(c1ccccc1Cl)S(=O)(=O)c1ccccc1,3.09%
19,OCCN(Cc1ccccc1)Cc1ccc(F)cc1,-1.5%
20,Cc1ccc(-c2noc(CN(C(=O)C3CCCCC3)C(C)C)n2)cc1,-3.06%
21,N#CCCNC(=O)c1cccc([N+](=O)[O-])c1,4.54%

row,Structure (SMILES),% Inhibition @ 10 uM
1,Cc1nn(C(C)C(=O)NCc2cccnc2)c(=O)c2nn(-c3ccccc3)c(C)c12 (stereo not drawn),-5.35%
2,CCN(CC)CCNC(=O)CCc1c(C)nc2c(c(C)nn2-c2ccc(C)cc2)c1C,-4.24%
3,CCN(CC)S(=O)(=O)c1cc(C(N)=O)ccc1Br,10.7%
4,N#CC1=C(SCc2ccccc2)NC(=O)CC1c1ccc(Cl)cc1Cl (stereo not drawn),-4.98%
5,Cc1ccc(C)c(NS(=O)(=O)c2ccc(NC(=O)CN3C(=O)c4cccc5cccc3c45)cc2)c1,1.62%
6,N=c1ccn(Cc2ccccc2Cl)cc1,1.55%
7,O=C(CCN1N=C(c2ccccc2)CCC1=O)NCCCN1CCOCC1,-6.4%
8,COc1cccc(C(=O)Nc2ccc(C)c(Cl)c2)c1,1.71%
9,CC(=O)C(C#N)c1ccc(Cl)cc1 (stereo not drawn),-2.54%
10,COc1ccc(C2(C(=O)Nc3ccc(F)cc3)CCOCC2)cc1OC,-0.171%
11,Cc1ccc(/C=C2/C(=N)N3C(=NC2=O)SN=C3S(=O)(=O)CC(C)C)o1,0.163%
12,COc1ccc(C(C#N)C(C)=O)cc1 (stereo not drawn),3.24%
13,Cc1nc2ncnn2c(C)c1CCC(=O)N1CCN(C(=O)c2ccco2)CC1,-2.25%
14,COc1ccc(CNC(=O)CNS(=O)(=O)c2ccc3nc(C)sc3c2)cc1,-2.45%
15,COc1ccc(CNC(=O)CN(c2cc(Cl)cc(Cl)c2)S(=O)(=O)c2ccccc2)cc1,0.795%
16,CCCCOC(=O)COc1cc(=O)oc2ccccc12,6.47%
17,COc1ccc2c(c1)C(=O)C(C1(O)C(=O)Nc3ccccc31)CC2 (stereo not drawn),-0.622%
18,O=C1c2ccccc2C(=O)N1Cc1ccc(S(=O)(=O)NC2CCCCCCC2)cc1,-3.48%
19,COc1ccc(C(=O)/N=c2\sc3c(n2C)-c2ccccc2CC3)cc1OC,-4.02%
20,Cc1cc(C)nc(Nc2n[nH]c(COc3ccc(Cl)cc3)n2)n1,4.58%
21,CC(C)(C)C(=O)Nc1ccccc1C(=O)Nc1ccccc1Br,3.8%
